Experimental data reported in the supplement of paper PMC8728848.
Some of the results follow.

Experiments:
Assay in all cases: glycan array binding signal (z-score within array); higher = stronger binding
Details in all cases: glycan notation: IUPAC condensed, linker removed
[1] = target: Fuc(a1-2)Gal(b1-4)GlcNAc(b1-3)Gal(b1-4)GlcNAc(b1-3)Gal(b1-4)GlcNAc
In short: (§1)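 The Consortium for Functional Glycomics database supplied 3228 glycan arrays, of which those lacking an available protein sequence were dropped. The binding signal, a within-array Z-score, was averaged across arrays of the same protein sequence and across linkers. Negative scores can be read as non-binding.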

[2] = target: Fuc(a1-2)Gal(b1-4)GlcNAc(b1-3)GalNAc
In short: as §1

[3] = target: Fuc(a1-2)Gal(b1-4)GlcNAc(b1-3)[Fuc(a1-2)Gal(b1-4)GlcNAc(b1-6)]GalNAc
In short: as §1

[4] = target: Fuc(a1-2)Gal(b1-4)GlcNAc(b1-3)[Fuc(a1-3)[Gal(b1-4)]GlcNAc(b1-6)]Gal(b1-4)Glc
In short: as §1

[5] = target: Fuc(a1-2)Gal(b1-4)GlcNAc(b1-6)GalNAc
In short: as §1

[6] = target: Fuc(a1-2)Gal(b1-4)GlcNAc6S
In short: as §1

[7] = target: Fuc(a1-2)Gal(b1-4)[Fuc(a1-3)]GlcNAc
In short: as §1

[8] = target: Fuc(a1-2)Gal(b1-4)[Fuc(a1-3)]GlcNAc(b1-2)Man(a1-3)[Fuc(a1-2)Gal(b1-4)[Fuc(a1-3)]GlcNAc(b1-2)Man(a1-6)]Man(b1-4)GlcNAc(b1-4)[Fuc(a1-6)]GlcNAc
In short: as §1

[9] = target: Fuc(a1-2)Gal(b1-4)[Fuc(a1-3)]GlcNAc(b1-2)[Fuc(a1-2)Gal(b1-4)[Fuc(a1-3)]GlcNAc(b1-4)]Man(a1-3)[Fuc(a1-2)Gal(b1-4)[Fuc(a1-3)]GlcNAc(b1-2)Man(a1-6)]Man(b1-4)GlcNAc(b1-4)GlcNAc
In short: as §1

[10] = target: Fuc(a1-2)Gal(b1-4)[Fuc(a1-3)]GlcNAc(b1-3)Gal(b1-4)[Fuc(a1-3)]GlcNAc
In short: as §1

[11] = target: Fuc(a1-2)Gal(b1-4)[Fuc(a1-3)]GlcNAc(b1-3)Gal(b1-4)[Fuc(a1-3)]GlcNAc(b1-3)Gal(b1-4)[Fuc(a1-3)]GlcNAc
In short: as §1

[12] = target: Fuc(a1-2)Gal(b1-4)[Fuc(a1-3)]GlcNAc(b1-3)GalNAc
In short: as §1

[13] = target: Fuc(a1-2)Gal(b1-4)[Fuc(a1-3)]GlcNAc(b1-3)[Neu5Ac(a2-6)Gal(b1-4)GlcNAc(b1-6)]Gal(b1-4)Glc
In short: as §1

[14] = target: Fuc(a1-2)Gal3S(b1-4)GlcNAc
In short: as §1

[15] = target: Fuc(a1-2)Gal6S(b1-3)GlcNAc
In short: as §1

[16] = target: Fuc(a1-2)Gal6S(b1-3)GlcNAc6S
In short: as §1

Fuc(a1-2)Gal6S(b1-4)Glc = target: Fuc(a1-2)Gal6S(b1-4)Glc
In short: as §1

[17] = target: Fuc(a1-2)Gal6S(b1-4)Glc6S
In short: as §1

Fuc(a1-2)[Gal(a1-3)]Gal = target: Fuc(a1-2)[Gal(a1-3)]Gal
In short: as §1

[18] = target: Fuc(a1-2)[Gal(a1-3)]Gal(b1-3)GalNAc
In short: as §1

[19] = target: Fuc(a1-2)[Gal(a1-3)]Gal(b1-3)GalNAc(b1-3)Gal(a1-4)Gal(b1-4)Glc
In short: as §1

[20] = target: Fuc(a1-2)[Gal(a1-3)]Gal(b1-3)GlcNAc
In short: as §1

[21] = target: Fuc(a1-2)[Gal(a1-3)]Gal(b1-3)GlcNAc(b1-2)Man(a1-3)[Fuc(a1-2)[Gal(a1-3)]Gal(b1-3)GlcNAc(b1-2)Man(a1-6)]Man(b1-4)GlcNAc(b1-4)GlcNAc
In short: as §1

[22] = target: Fuc(a1-2)[Gal(a1-3)]Gal(b1-3)GlcNAc(b1-2)Man(a1-3)[Fuc(a1-2)[Gal(a1-3)]Gal(b1-3)GlcNAc(b1-2)Man(a1-6)]Man(b1-4)GlcNAc(b1-4)[Fuc(a1-6)]GlcNAc
In short: as §1

[23] = target: Fuc(a1-2)[Gal(a1-3)]Gal(b1-3)GlcNAc(b1-3)GalNAc
In short: as §1

[24] = target: Fuc(a1-2)[Gal(a1-3)]Gal(b1-3)GlcNAc(b1-6)GalNAc
In short: as §1

[25] = target: Fuc(a1-2)[Gal(a1-3)]Gal(b1-4)Glc
In short: as §1

[26] = target: Fuc(a1-2)[Gal(a1-3)]Gal(b1-4)GlcNAc
In short: as §1

[27] = target: Fuc(a1-2)[Gal(a1-3)]Gal(b1-4)GlcNAc(b1-2)Man
In short: as §1

[28] = target: Fuc(a1-2)[Gal(a1-3)]Gal(b1-4)GlcNAc(b1-2)Man(a1-3)[Fuc(a1-2)[Gal(a1-3)]Gal(b1-4)GlcNAc(b1-2)Man(a1-6)]Man(b1-4)GlcNAc(b1-4)GlcNAc
In short: as §1

B1: PX14375C-bth-509-28-509 (Bacteroides thetaiotaomicron) (protein)
chain: RSPQGQFTEDDNPNALVNGKIYNVYTMMRSFDITAGTPAIAIHYLRSEDSEKGSIPSDGSDVAEMYDDFLYTPTNGLLGSYWGKNYAIIYQCNDILDAIAEKETAGQTETEDIINKGEASFFRAYCYFNLVRAFGEVPLVTYKINDASEANIPKTTADKIYEQIDTDLKTAEESLPETWSTEYTGRLTWGAARSLHARTYMMRSDWDNMYKASTDVINKGLYNLKTPYNEIFTDDGENSGGSIFELQCTATAALPQSDVIGSQFCEVQGVRGAGQWDLGWGWHMATQLMADAYETGDPRKNATLLYFRKTDDEPITPENTNEPYGESPISPAMGAYFNKKAYTDPALRKEYTNKGFWVNIRLIRYSDVVLMAAEAANEKNIPGEAVDYLEMVRARARGTNTNILPKITTNDQGELREAIRHERRVELGLEPDRFYDLVRWGIASEVLHAAGKVNYQDKNALLPLPQSEIDKSKGVLVQNPDY
[1]
  glycan array binding signal (z-score): -0.427
[2]
  glycan array binding signal (z-score): -0.317
[3]
  glycan array binding signal (z-score): -0.14
[4]
  glycan array binding signal (z-score): -0.36
[5]
  glycan array binding signal (z-score): 0.925
[6]
  glycan array binding signal (z-score): -0.011
[7]
  glycan array binding signal (z-score): -0.287
[8]
  glycan array binding signal (z-score): -0.304
[9]
  glycan array binding signal (z-score): -0.328
[10]
  glycan array binding signal (z-score): -0.089
[11]
  glycan array binding signal (z-score): -0.371
[12]
  glycan array binding signal (z-score): -0.138
[13]
  glycan array binding signal (z-score): 0.026
[14]
  glycan array binding signal (z-score): -0.285
[15]
  glycan array binding signal (z-score): -0.144
[16]
  glycan array binding signal (z-score): 0.159
Fuc(a1-2)Gal6S(b1-4)Glc
  glycan array binding signal (z-score): -0.051
[17]
  glycan array binding signal (z-score): -0.272
Fuc(a1-2)[Gal(a1-3)]Gal
  glycan array binding signal (z-score): -0.193
[18]
  glycan array binding signal (z-score): -0.032
[19]
  glycan array binding signal (z-score): -0.177
[20]
  glycan array binding signal (z-score): -0.181
[21]
  glycan array binding signal (z-score): 0.287
[22]
  glycan array binding signal (z-score): -0.336
[23]
  glycan array binding signal (z-score): -0.337
[24]
  glycan array binding signal (z-score): -0.156
[25]
  glycan array binding signal (z-score): 0.04
[26]
  glycan array binding signal (z-score): -0.248
[27]
  glycan array binding signal (z-score): -0.262
[28]
  glycan array binding signal (z-score): 1.12
